Measurements published in the supplement of paper PMC10126150.
Sequences with one replicate were seen in a single cluster, so their values are uncertain.

These sequences were tested on ATP (assay: switch fluorescence ratio, 500 uM ATP over buffer (Cy3 cluster intensity, sum of 5 cycles each) (fold (ratio)); higher = stronger signal-on switching upon ATP binding; sequences stand for … in TCGTCGGCAGCGTCAGATGTGTATAAGAGACAGTTTTTTTTTTTTTTTTTTTTTTTTT…TC). Conditions: aptamer strand: ATP DNA aptamer (quencher-CACCTGGGGGAGTATTGCGGAGGAAGG + anchor), 100 nM annealed; ATP concentration: 500 uM; one replicate.
Procedure, shortened: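 Exposure to 500 uM ATP lasted 15 min at 22 °C before imaging, and a selection-buffer image was taken beforehand, for Cy3-labelled switching-strand clusters on a modified Illumina MiSeq flow-cell annealed to 100 nM quencher-labelled ATP aptamer. Five buffer/ATP cycles were run with NaOH stripping and re-annealing between them. The fluorescence ratio per cluster is summed target-cycle over summed buffer-cycle Cy3 intensity, averaged per switch-domain sequence. Clusters outside 100-1000 RFU were excluded.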

Switch fluorescence ratio, 0.969:
GTGGATGTTT

Switch fluorescence ratio, 0.955:
GTGGACCCAT
GTGGTCAGAC
GTTAGGCTG

Switch fluorescence ratio, 0.973:
GTCTCAATG
GTTAACCCAG

Switch fluorescence ratio, 1.11:
GTGAGAGTCC
GTGGCCTTGC
GTGTTAGGTG
GTTATTCC

Switch fluorescence ratio, 1.04:
GTCGGAGGTA
GTCTTCTGCG
GTGAGAGGAC
GTGAGGCACT
GTGCGCAAAG
GTGCTGGGAT
GTGGGTCTGG
GTGGTAGGAC
GTTACTGTTA
GTTAGCAGAG

Switch fluorescence ratio, 0.923:
GTCGTTTAGA

Switch fluorescence ratio, 0.987:
GTCGGAGAGA

Switch fluorescence ratio, 0.986:
GTCTATGGGG
GTCTGGGTTA
GTGTTGCGGG
GTTAACTCGC
GTTATTTGAT

Switch fluorescence ratio, 1.17:
GTCTCCGGAC

Switch fluorescence ratio, 0.953:
GTCTGGGAGC
GTGTGGCAGC

Switch fluorescence ratio, 0.943:
GTGGGGAGGA
GTTAGAGTTA
GTTATATGGG

Switch fluorescence ratio, 1.05:
GTCGCCTTC
GTGAGAGAAT
GTGCAAACAT
GTGCACGG
GTGCGGAGGA

Switch fluorescence ratio, 1.46:
GTTACATTAC

Switch fluorescence ratio, 0.952:
GTGGTAGGTG
GTTATCGGTC

Switch fluorescence ratio, 0.972:
GTCGGGCGC

Switch fluorescence ratio, 1.01:
GTCTCAGGA
GTCTCATCAG
GTCTCCAGGA
GTCTGCAGCG
GTCTTAACCA
GTGACAAAGG
GTGACATTTC
GTGAGACTTT
GTGATAGGT
GTGATGGGTA
GTGGAGCGCT
GTGGCATGAG
GTGGCCGCTA
GTGGGGAAGA
GTGGTAAGC
GTGTGGAGTA
GTGTTCAAGA
GTTAAAGGAA
GTTACGAATT
GTTAGAATAG
GTTATCTACC
GTTCAAGACA

Switch fluorescence ratio, 1.69:
GTCGCAATTA

Switch fluorescence ratio, 0.98:
GTGGCCTTGT
GTGTATTT
GTGTCGTGCG

Switch fluorescence ratio, 1:
GTCGAAAAGA
GTCGTTAGTC
GTCTAAAGTC
GTCTGGCC
GTGCCAGAGG
GTGCGTAGGG
GTGCTTTATG
GTGGGCAACA
GTGTAGCCGG
GTGTCTCTTG
GTGTTTCTGA
GTTAACACGG
GTTAACCGGC
GTTAATATGA
GTTATCAAGT

Switch fluorescence ratio, 0.97:
GTGGAGAAGA
GTGGCGCGC

Switch fluorescence ratio, 0.985:
GTCTGGGGGG
GTGGCCGGGA
GTGGGGATCA
GTGGGTATCG

Switch fluorescence ratio, 0.996:
GTCGGGTTTT
GTTATTTCGT

Switch fluorescence ratio, 1.06:
GTGAATGGCC
GTGACCGCCG
GTGTTCCGTA

Switch fluorescence ratio, 1.14:
GTTAGGCGGG

Switch fluorescence ratio, 0.999:
GTCTGTAAAT
GTGCATGAT

Switch fluorescence ratio, 1.02:
GTCGAATGGC
GTCGGCCTTA
GTCGGGCCAT
GTCTGACTTC
GTGAACGGGA
GTGACACT
GTGAGGTTCT
GTGAGTAAGA
GTGATACCAC
GTGATCTACT
GTGATGTAT
GTGCCCATGA
GTGGAGTGTG
GTGGATAATT
GTGGGCCTTC
GTGGGGCTGC
GTGGGGTCCT
GTGTCTCATA
GTGTCTTTCA
GTGTGACTGG
GTGTTCAGTG
GTGTTTTGAT
GTTAAAGCGA
GTTAGCGGAG
GTTCACGGAA

Switch fluorescence ratio, 0.965:
GTTATGTCGG

Switch fluorescence ratio, 0.995:
GTCGTGAGAA
GTCGTTCATA
GTCGTTCATG
GTGTGCGGTT

Switch fluorescence ratio, 1.23:
GTTACTTACT

Switch fluorescence ratio, 0.981:
GTGTGTACCG

Switch fluorescence ratio, 1.44:
GTGAAGGTGC

Switch fluorescence ratio, 0.976:
GTGGCACTTT
GTGTGATTAG

Switch fluorescence ratio, 1.09:
GTCTGCAGTC
GTGACGAAAA
GTGTACCCCT

Switch fluorescence ratio, 1.18:
GTTAACTCCG

Switch fluorescence ratio, 0.979:
GTGAGACACA
GTGATGTTTG
GTGCGAGGCG
GTGCTTACGT
GTGGATAAAT
GTGGGAATCC

Switch fluorescence ratio, 0.992:
GTGACCTATG

Switch fluorescence ratio, 1.03:
GTCCTTTAAG
GTCGCATGCC
GTCTCACAGT
GTGATCTGTA
GTGATTTACA
GTGTAATGAA
GTTAGATCAG

Switch fluorescence ratio, 0.962:
GTCGACGGTA

Switch fluorescence ratio, 0.997:
GTGATTGGCC
GTGTATTCTT

Switch fluorescence ratio, 0.95:
GTGAGTGACC

Switch fluorescence ratio, 0.977:
GTGCTTCAGA

Switch fluorescence ratio, 0.99:
GTTATGTTAA

Switch fluorescence ratio, 1.35:
GTTACCCCCG

Switch fluorescence ratio, 0.951:
GTTACCATGG

Switch fluorescence ratio, 1.1:
GTTAATAGTC
GTTCACGACC

Switch fluorescence ratio, 0.974:
GTCGAAGAAA
GTGAATTGTT
GTGTTGAAAA

Switch fluorescence ratio, 0.983:
GTCTAACGTG
GTCTAGAGAG
GTGCCCTCAG
GTGCCTTTGA

Switch fluorescence ratio, 0.988:
GTCGGGCTCC
GTGCGTGTAA
GTGGTACATT

Switch fluorescence ratio, 0.991:
GTGGCCAATA
GTGTAGGCCT
GTGTCGGGTT
GTGTTGGGAG
GTTAAGGGTT
GTTCACCATC

Switch fluorescence ratio, 0.978:
GTCTTGGATT
GTGTCGGTTA
GTGTCGTGAC

Switch fluorescence ratio, 0.968:
GTTAATGTGG

Switch fluorescence ratio, 0.967:
GTCGGGCTTA
GTGCTTAGCC

Switch fluorescence ratio, 0.989:
GTCTTGATGG
GTGGGGACCA
GTGTCGAAGC
GTTATGCGTG

Switch fluorescence ratio, 0.993:
GTGGCGGTGG

Switch fluorescence ratio, 0.994:
GTGATGACCG
GTGCGAGGAC
GTTACTACTT

Switch fluorescence ratio, 0.937:
GTGAGTGTGG

Switch fluorescence ratio, 1.08:
GTGAACCTA
GTGCGTCCGC
GTTAGGGTGT
GTTCAGTTAC

Switch fluorescence ratio, 0.966:
GTGGTACTT

Switch fluorescence ratio, 0.998:
GTGCCCCGCT
GTGCTCTGCT
GTGGCGTTGC
GTGGTAAAAT

Switch fluorescence ratio, 0.948:
GTGGTGAGTC
